Reference: the antibiotic and cytotoxicity screens of Wong et al. (2023)
This is one part of the list.

Legend:
[1] = system: HSkMC (human skeletal muscle cells); assay: cytotoxicity call (relative viability < 0.9); settings: 10 µM
[2] = system: S. aureus RN4220; assay: growth inhibition call (relative growth <= 0.2); settings: 50 µM

O=C(C[C@H]1C[C@H]2c3cc(NS(=O)(=O)c4ccc(F)cc4)ccc3O[C@H]2[C@H](CO)O1)NCc1cccc(F)c1
cytotoxicity call [1]: inactive
growth inhibition call [2]: inactive

C[C@@H]1CN([C@@H](C)CO)C(=O)Cc2cc(NC(=O)Nc3ccc(C(F)(F)F)cc3)ccc2O[C@H]1CN(C)Cc1ccc(Oc2ccccc2)cc1
cytotoxicity call [1]: active
growth inhibition call [2]: inactive

Cc1c(NC(C)C)c(=O)n(-c2ccccc2)n1C.Cl
cytotoxicity call [1]: inactive
growth inhibition call [2]: inactive

O=C(CCc1cn(-c2ccc(C[C@H]3C(=O)O[C@@H](Cc4ccccc4)[C@H]4[C@@H]5C=CCCC=C5CN43)cc2)nn1)NO
cytotoxicity call [1]: inactive
growth inhibition call [2]: inactive

C[C@@H]1CN([C@@H](C)CO)C(=O)c2cccc(NC(=O)c3ccc(-c4nccs4)cc3)c2O[C@H]1CN(C)C(=O)Nc1ccccc1
cytotoxicity call [1]: inactive
growth inhibition call [2]: inactive

COc1ccc(S(=O)(=O)Nc2cccc3c2O[C@@H](CN(C)S(=O)(=O)c2cn(C)cn2)[C@H](C)CN([C@@H](C)CO)C3=O)cc1
cytotoxicity call [1]: inactive
growth inhibition call [2]: inactive

CNC(=NC#N)NCCSCc1nc[nH]c1C
cytotoxicity call [1]: inactive
growth inhibition call [2]: inactive

CC(C)=CCCC(C)=CCCC(C)=CCO [trans,trans-FARNESOL ]
cytotoxicity call [1]: inactive

C[C@@H]1CN([C@@H](C)CO)C(=O)c2cc(C#CC3(O)CCCC3)cnc2O[C@H]1CN(C)S(=O)(=O)c1ccc(F)cc1
cytotoxicity call [1]: inactive
growth inhibition call [2]: inactive

C[C@H]1CCCCO[C@H](CN(C)C(=O)C2CCCCC2)[C@@H](C)CN([C@@H](C)CO)C(=O)c2cc(NC(=O)CCC(F)(F)F)ccc2O1
cytotoxicity call [1]: inactive
growth inhibition call [2]: inactive

Nc1nc2c(ncn2COC(CO)CO)c(=O)[nH]1.O
cytotoxicity call [1]: inactive
growth inhibition call [2]: inactive

C/C=C/C[C@@H](C)[C@@H](O)[C@H]1C(=O)N[C@@H](CC)C(=O)N(C)CC(=O)N(C)[C@@H]([C@@H](C)CC)C(=O)N[C@@H](C(C)C)C(=O)N(C)[C@@H](CC(C)C)C(=O)N[C@@H](C)C(=O)N[C@H](C)C(=O)N(C)[C@@H](CC(C)C)C(=O)N(C)[C@@H](CC(C)C)C(=O)N(C)[C@@H](C(C)C)C(=O)N1C
cytotoxicity call [1]: inactive
growth inhibition call [2]: inactive

C[C@H](CO)N1C[C@H](C)[C@@H](CN(C)Cc2ccc(C(=O)Nc3ccccc3N)cc2)Oc2ccc(NC(=O)CCC(F)(F)F)cc2CC1=O
cytotoxicity call [1]: inactive
growth inhibition call [2]: inactive

COc1cccc(S(=O)(=O)N(C)C[C@H]2Oc3ncc(C#CCC(C)C)cc3C(=O)N([C@@H](C)CO)C[C@@H]2C)c1
cytotoxicity call [1]: inactive
growth inhibition call [2]: inactive

COc1ccc(NC(=O)N(C)C[C@H]2OCCCC[C@H](C)Oc3ccc(NS(=O)(=O)c4ccc(OC)cc4)cc3C(=O)N([C@H](C)CO)C[C@@H]2C)cc1
cytotoxicity call [1]: inactive
growth inhibition call [2]: inactive

COc1ccc(S(=O)(=O)Nc2ccc3c(c2)C(=O)N([C@@H](C)CO)C[C@@H](C)[C@H](CN(C)Cc2ccc(-c4ccccc4)cc2)O3)cc1
cytotoxicity call [1]: active
growth inhibition call [2]: inactive

C[C@@H]1CCCCO[C@@H](CN(C)Cc2ccccc2)[C@@H](C)CN([C@H](C)CO)C(=O)c2cc(NC(=O)Nc3cccc4ccccc34)ccc2O1
cytotoxicity call [1]: inactive
growth inhibition call [2]: inactive

COc1ccc(S(=O)(=O)Nc2ccc3c(c2)CC(=O)N([C@@H](C)CO)C[C@@H](C)[C@H](CN(C)Cc2ccc(C(=O)O)cc2)O3)cc1
cytotoxicity call [1]: inactive
growth inhibition call [2]: inactive

C[C@H](CO)N1C[C@H](C)[C@@H](CN(C)Cc2ccc(Cl)c(Cl)c2)Oc2ccc(NS(=O)(=O)c3ccccc3)cc2CC1=O
cytotoxicity call [1]: inactive
growth inhibition call [2]: inactive

Cc1ccc(S(=O)(=O)Nc2cccc3c2O[C@H](CN(C)Cc2ccc(Cl)c(Cl)c2)[C@H](C)CN([C@H](C)CO)C3=O)cc1
cytotoxicity call [1]: inactive
growth inhibition call [2]: inactive

COc1ccc(-c2coc3c(OC)c(OC)cc(O)c3c2=O)cc1
cytotoxicity call [1]: inactive
growth inhibition call [2]: inactive

COc1ccc(CN(C)C[C@@H]2OCCCC[C@@H](C)Oc3ccc(NC(=O)Cc4ccccc4)cc3C(=O)N([C@H](C)CO)C[C@H]2C)cc1
cytotoxicity call [1]: inactive
growth inhibition call [2]: inactive

C[C@H]1CCCCO[C@@H](CN(C)S(=O)(=O)c2ccccc2)[C@@H](C)CN([C@@H](C)CO)C(=O)c2cc(NC(=O)C3CCCCC3)ccc2O1
cytotoxicity call [1]: inactive
growth inhibition call [2]: inactive

CCS(=O)(=O)Nc1ccc2c(c1)C(=O)N(C)[C@@H]1CC[C@H](CC(=O)N[C@H]3CCN(Cc4ccccc4)C3)O[C@@H]1CO2
cytotoxicity call [1]: inactive
growth inhibition call [2]: inactive

Cc1ccc(S(=O)(=O)N(C)C[C@H]2Oc3ccc(N(C)C)cc3CC(=O)N([C@H](C)CO)C[C@H]2C)cc1
cytotoxicity call [1]: inactive
growth inhibition call [2]: inactive

C[C@H](CO)N1C[C@H](C)[C@@H](CN(C)Cc2ccccc2F)Oc2cc(C#CC3CC3)ccc2S1(=O)=O
cytotoxicity call [1]: inactive
growth inhibition call [2]: inactive
